{
  "source": "the antibiotic and cytotoxicity screens of Wong et al. (2023)",
  "note": "The list shows a part of the results.",
  "data": [
    {"tested_on": "HSkMC (human skeletal muscle cells)", "assay": "cytotoxicity call (relative viability < 0.9)", "details": "10 µM", "values": [
      {"molecule": "Cc1ccc(-c2ccc3c(c2)O[C@H](CN(C)C(=O)NC(C)C)[C@@H](C)CN([C@H](C)CO)S3(=O)=O)cc1", "cytotoxicity call": "inactive"},
      {"molecule": "CC#CCOC(=O)C1=CCCN(C)C1", "cytotoxicity call": "inactive"},
      {"molecule": "C[C@H](CO)N1C[C@H](C)[C@@H](CN(C)S(=O)(=O)c2ccc(Cl)cc2)OCCCC[C@H](C)Oc2ccc(NC(=O)c3ccccc3)cc2C1=O", "cytotoxicity call": "inactive"},
      {"molecule": "C[C@H](CO)N1C[C@H](C)[C@@H](CN(C)Cc2ccc(Oc3ccccc3)cc2)Oc2c(NC(=O)c3ccc(-c4nccs4)cc3)cccc2C1=O", "cytotoxicity call": "inactive"},
      {"molecule": "C[C@@H]1CN([C@@H](C)CO)C(=O)Cc2cc(NC(=O)Nc3ccc(C(F)(F)F)cc3)ccc2O[C@@H]1CN(C)Cc1ccc(C(F)(F)F)cc1", "cytotoxicity call": "active"},
      {"molecule": "C=CC1=C(C(=O)O)N2C(=O)[C@@H](NC(=O)/C(=N\\O)c3csc(N)n3)[C@H]2SC1", "cytotoxicity call": "inactive"},
      {"molecule": "O=C(CN1CCOCC1)N[C@@H]1CC[C@H](CCNC(=O)Nc2cc(F)ccc2F)O[C@H]1CO", "cytotoxicity call": "inactive"},
      {"molecule": "C[C@H](CO)N1C[C@H](C)[C@H](CN(C)C(=O)Nc2ccc(F)cc2)OCc2ccccc2-c2ccccc2C1=O", "cytotoxicity call": "inactive"},
      {"molecule": "NC1CONC1=O", "note": "(configuration not stated)", "cytotoxicity call": "inactive"},
      {"molecule": "COc1ccc(S(=O)(=O)N(C)C[C@@H]2OCCCC[C@@H](C)Oc3ccc(NC(=O)Nc4ccccc4)cc3C(=O)N([C@H](C)CO)C[C@H]2C)cc1", "cytotoxicity call": "inactive"},
      {"molecule": "CC(C)N1C[C@@H](CN(C)Cc2ccc(Cl)c(Cl)c2)Oc2c(NC(=O)c3ccncc3)cccc2C1=O", "cytotoxicity call": "inactive"},
      {"molecule": "C[C@H]1CCCCO[C@H](CN(C)Cc2ccc(C(F)(F)F)cc2)[C@@H](C)CN([C@@H](C)CO)C(=O)c2cc(NS(=O)(=O)c3cccs3)ccc2O1", "cytotoxicity call": "inactive"},
      {"molecule": "C[C@H](CO)N1C[C@H](C)[C@@H](CN(C)Cc2ccc(C(F)(F)F)cc2)OCCCC[C@H](C)Oc2ccc(NC(=O)NC3CCCCC3)cc2C1=O", "cytotoxicity call": "active"},
      {"molecule": "C[C@H](CO)N1C[C@H](C)[C@@H](CN(C)C(=O)C2CCC2)Oc2cc(-c3ccc(C(=O)N(C)C)cc3)ccc2S1(=O)=O", "cytotoxicity call": "inactive"},
      {"molecule": "C[C@H](CO)N1C[C@H](C)[C@@H](CN(C)Cc2ccncc2)Oc2c(NC(=O)C3CCOCC3)cccc2C1=O", "cytotoxicity call": "inactive"},
      {"molecule": "Nc1ccc(S(=O)(=O)Nc2ccc(Cl)nn2)cc1", "cytotoxicity call": "inactive"},
      {"molecule": "O=C(CN1CCOCC1)NCC[C@@H]1CC[C@@H](NC(=O)Cc2ccccn2)[C@H](CO)O1", "cytotoxicity call": "inactive"},
      {"molecule": "C[C@@H]1CN([C@H](C)CO)C(=O)c2cccc(NS(C)(=O)=O)c2O[C@@H]1CN(C)C(=O)NC1CCCCC1", "cytotoxicity call": "inactive"},
      {"molecule": "C[C@H]1CCCCO[C@@H](CN(C)Cc2ccncc2)[C@@H](C)CN([C@@H](C)CO)C(=O)c2cc(NC(=O)Nc3cccc4ccccc34)ccc2O1", "cytotoxicity call": "inactive"},
      {"molecule": "Cc1noc(C)c1NC(=O)Nc1ccc2c(c1)CC(=O)N([C@@H](C)CO)C[C@H](C)[C@@H](CN(C)S(=O)(=O)c1ccccc1)O2", "cytotoxicity call": "inactive"},
      {"molecule": "Cc1ccc(S(=O)(=O)N(C)C[C@H]2Oc3ccc(NC(=O)Cn4cnnn4)cc3CC(=O)N([C@H](C)CO)C[C@@H]2C)cc1", "cytotoxicity call": "inactive"},
      {"molecule": "C[C@@H]1CN([C@H](C)CO)C(=O)Cc2cc(NC(=O)CCC(F)(F)F)ccc2O[C@@H]1CN(C)S(=O)(=O)c1cn(C)cn1", "cytotoxicity call": "inactive"},
      {"molecule": "COc1ccc2c3c([nH]c2c1)[C@@H](CO)N(Cc1cc(ccc1F)F)C[C@]13CCN(CC1)C(=O)CN(C)C", "cytotoxicity call": "inactive"},
      {"molecule": "C[C@@H]1CN([C@@H](C)CO)C(=O)c2cc(NC(=O)NC3CCCCC3)ccc2O[C@@H]1CN(C)Cc1ccc(Oc2ccccc2)cc1", "cytotoxicity call": "inactive"},
      {"molecule": "CN(C)c1ccsc1C(=O)NN", "cytotoxicity call": "inactive"},
      {"molecule": "Cn1c(=O)n(C)c2cc(CO)ccc21", "cytotoxicity call": "inactive"},
      {"molecule": "C[C@H](CO)N1C[C@H](C)[C@@H](CN(C)S(=O)(=O)c2ccc(Cl)cc2)Oc2ccc(NC(=O)CCN3CCOCC3)cc2C1=O", "cytotoxicity call": "inactive"},
      {"molecule": "C[C@H](CO)N1C[C@H](C)[C@@H](CN(C)C(=O)Nc2ccc(C(F)(F)F)cc2)Oc2c(NC(=O)C3CCCCC3)cccc2C1=O", "cytotoxicity call": "inactive"},
      {"molecule": "COc1ccc(S(=O)(=O)N(C)C[C@@H]2Oc3cc(C#CC4CCCC4)ccc3S(=O)(=O)N([C@@H](C)CO)C[C@H]2C)cc1", "cytotoxicity call": "inactive"},
      {"molecule": "C[C@H](CO)N1C[C@H](C)[C@H](CN(C)Cc2ccc(C(=O)O)cc2)Oc2ncc(C#CCN(C)C)cc2C1=O", "cytotoxicity call": "inactive"},
      {"molecule": "C[C@H]1CN([C@@H](C)CO)C(=O)c2cc(NC(=O)Nc3ccc(F)cc3)ccc2O[C@H]1CN(C)Cc1ccc(Oc2ccccc2)cc1", "cytotoxicity call": "inactive"},
      {"molecule": "C[C@H](CO)N1C[C@H](C)[C@H](CN(C)C(=O)Nc2cccc3ccccc23)Oc2ccc(NS(=O)(=O)c3cccs3)cc2C1=O", "cytotoxicity call": "inactive"}
    ]}
  ]
}
